# PubChem BioAssay AID1508642 (National Center for Advancing Translational Sciences (NCATS), 2021)
# About 200 (0.47%) of roughly 43,000 compounds were called active. Not shown: some 12% with an inconclusive outcome. Calls come from the whole dose curve; as a rule, active = well fitted cell-killing curve with a large enough effect; inconclusive = small, poorly fitted or top-dose-only effect, or effect the other way; inactive = flat fitted curve, though single readings scatter. Some of the results follow.
# Assay: Cell viability qHTS assay in S16 Pmp22-F2sN cells; note: nearly all actives have a fitted effect of over 65% in size
# Conditions: S16 Pmp22-F2sN Schwann cells (luciferase reporters placed in the Pmp22 gene) viability, CellTiter-Glo, 24 h; series mostly up to 57.5 µM; activity change, negative = cytotoxicity: at the top concentration
# How it was run: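 Luminescence from CellTiter-Glo, read by CCD camera after a 15 min room-temperature incubation, served as the viability signal. Reporter Schwann cells (S16 Pmp22-F2sN) had been treated with pin-transferred compounds for 24 h at 37C.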
# % is set by controls: 0 for no effect and ±100 for the full control effect.
row,Compound,"activity change, negative = cytotoxicity"
1,CNC(=O)c1ccc(CSc2nc3ccncc3n2Cc2ccc(C)cc2)cc1,inactive: -26.8%
2,Brc1ccc2nc(SCCOc3ccccc3)[nH]c2c1,inactive: -1.82%
3,Cc1ccc2c(c1)N(C(=O)Nc1cccc3c1CCCC3)CC(C)O2 (configuration not stated),inactive: -17.3%
4,Cc1ccc2oc(-c3cc(NC(=O)/C=C/c4ccco4)ccc3Cl)nc2c1,inactive: 0.743%
5,CC(=O)Nc1nonc1-c1nc2ccccc2n1Cc1ccccc1Br,inactive: 1.24%
6,COc1cc2c(cc1OC)C(COc1ccc3c(C)cc(=O)oc3c1)N(C(=O)CC(C)C)CC2 (configuration not stated),inactive: -2.23%
7,CN1CCN(C(CNC(=O)c2ccccc2)c2ccc3c(c2)OCO3)CC1 (configuration not stated),inactive: 7.79%
8,O=C(NCc1cccc(Cl)c1)C1CCCN(c2ncnc3onc(-c4ccc(F)cc4)c23)C1 (configuration not stated),inactive: -17.4%
9,CCn1c(=O)cc(SCC(=O)N2CCN(c3ccccc3F)CC2)c2ccccc21,inactive: -3.07%
10,CCOc1ccc(NC(=O)c2c(NC(=O)c3cccs3)sc3c2CCC(C(C)(C)C)C3)cc1 (configuration not stated),inactive: 16.5%
11,COc1ccccc1NC(=O)c1cc(S(=O)(=O)NCCC2=CCCCC2)ccc1F,inactive: -3.84%
12,Cc1ccccc1CN1CCCN(CC(=O)Nc2ccc3c(c2)OCCO3)S1(=O)=O,inactive: 1.03%
13,COc1ccc(NC(=O)CCc2c(C)nc3c(-c4ccc(F)cc4)c(C)nn3c2C)c(OC)c1,inactive: 10.5%
14,COC(=O)c1cc(NC(=O)c2ccc(-c3ccc(Cl)cc3Cl)o2)cc(C(=O)OC)c1,inactive: 4.09%
15,CCOC(=O)c1noc2nc(C)n(Cc3ccc([N+](=O)[O-])cc3)c(=O)c12,inactive: 6.22%
16,Cc1cccc(Cn2nnc3c(=O)[nH]c(C4CCN(C(=O)c5ccc(F)cc5)CC4)nc32)c1,inactive: -11.7%
17,COc1ccc(NC(=O)NC(C)c2c(-n3cccc3)sc3c2CCN(C)C3)c(OC)c1 (configuration not stated),inactive: 3.3%
18,CCOc1ccc(NC(=O)CN(C)S(=O)(=O)c2cnc[nH]2)cc1,inactive: -9.96%
19,Nc1c(C(=O)Nc2cccc(C(F)(F)F)c2)c2ccccn2c1C(=O)c1ccccc1,inactive: -0.0254%
20,CCOC(=O)c1sc(NC(=O)c2cc(-c3ccc(F)cc3)on2)c(C(=O)OCC)c1C,inactive: 1.06%
21,Cc1c(CC(=O)NCCc2ccc(Cl)cc2)c(=O)oc2c(C)c3occ(C(C)(C)C)c3cc12,inactive: -17.2%
22,Cc1ccc(NC(=O)C2CCCN(S(=O)(=O)c3cccc4cccnc34)C2)c(C)c1 (configuration not stated),inactive: -15.9%
23,CCOC(=O)CSc1nc2ccc(NC(=O)c3ccccc3F)cc2s1,inactive: 1.22%
24,Cc1ccccc1-c1nc2cc(NC(=O)COc3ccc(F)cc3)ccc2o1,inactive: 10.4%
25,CCOC(=O)c1c(-c2ccccc2)csc1NC(=O)c1cc(-c2ccc(Cl)cc2)on1,inactive: 2.02%

row,Compound,"activity change, negative = cytotoxicity"
1,CCS(=O)(=O)c1nc(S(=O)(=O)c2ccc(Cl)cc2)c(NCc2ccccc2Cl)s1,inactive: -25.8%
2,CCOc1ccc(CNC(=O)c2ccc(Sc3ccc(Cl)cc3)c(NC(C)=O)c2)cc1OC,inactive: 1.84%
3,COc1ccc(OC)c(C2c3c(oc4ccc(C)cc4c3=O)C(=O)N2CCCN(C)C)c1 (configuration not stated),inactive: -1.95%
4,CC(=O)Nc1cccc(NC(=O)c2c(-c3ccccc3)c(-c3ccccc3)nn(C)c2=O)c1,inactive: -14.9%
5,CCc1ccccc1NS(=O)(=O)c1ccc2c(c1)OCC(C(=O)N1CCCC1)O2 (configuration not stated),inactive: -17.2%
6,CCCN(CCC)C(=O)CSc1nc2sc3c(c2c(=O)n1-c1ccccc1)CCN(C(C)=O)C3,inactive: -27.4%
7,O=C(NCCC1=CCCCC1)c1ccc2c(c1)ncn2-c1ccc(F)c(F)c1,inactive: -0.107%
8,O=c1c2c(-c3ccc(Cl)cc3)ccnc2[nH]n1-c1ccccc1,inactive: 26.7%
9,CCC(C(=O)Nc1cc(-c2nc3cccnc3s2)ccc1C)c1ccccc1 (configuration not stated),inactive: 3.39%
10,Cc1ccc(Cl)cc1NC(=O)Cn1c(=O)c2ccccc2n2nncc12,inactive: 8.74%
11,CCOc1ccccc1C1CC(=O)Oc2c1c(=O)n(C)c1ccccc21 (configuration not stated),inactive: -1.76%
12,CCc1ccc(-n2nc3ccc(NC(=O)c4ccc(C#N)cc4F)cc3n2)cc1,inactive: 12.6%
13,COc1cccc(CNC(=O)C2CCN(c3nnc(-n4c(C)ccc4C)s3)CC2)c1,inactive: -1.25%
14,Cc1cccc(-n2ncc3c(NC4CCCC4)ncnc32)c1,inactive: 6.54%
15,CCC(CC)C(=O)Nc1cccc(-c2nc3ccccc3s2)c1,inactive: -3.45%
16,CCOc1ccc(-c2nnc(SCC(=O)NCc3ccc(C)cc3)nc2-c2ccc(OCC)cc2)cc1,inactive: 1.85%
17,Fc1ccc(-c2cn3cc(Cc4ccc(Cl)cc4)sc3n2)cc1,inactive: 5.58%
18,Cc1ccccc1CSc1nc2c(sc3ccccc32)c(=O)n1CCCOC(C)C,inactive: -24.5%
19,COc1cc(OC)cc(N2CCN(S(=O)(=O)c3ccc(-n4cnnn4)cc3)CC2)c1,inactive: 1%
20,COc1ccc(-c2cn3nc(N4CCCC(C(=O)NCc5ccccc5Cl)C4)sc3n2)cc1 (configuration not stated),inactive: -18.8%
21,Cc1cccc(CNC(=O)CCn2ccc3cc(S(=O)(=O)N4CCCC4)ccc32)c1,inactive: -5.07%
22,COc1ccc(OC)c(CCNC(=O)c2cnn(-c3ccccc3)c2C2CCN(C(=O)OC(C)(C)C)CC2)c1,inactive: -10.2%
23,Cc1ccc(-n2nnnc2CNC(=O)C(C)C)cc1C,inactive: 6.08%
24,CCSc1nnc2c(n1)OC(CC)N(C(C)=O)c1ccccc1-2 (configuration not stated),inactive: -1.84%
25,Cc1nn(C)c2c1c(-c1ccccc1)cc(=O)n2C(C)C(=O)NCc1ccc(F)cc1 (configuration not stated),inactive: 6.37%

row,Compound,"activity change, negative = cytotoxicity"
1,CCN1CCN(C(c2cccc(F)c2)c2c(O)cc(C)n(Cc3ccco3)c2=O)CC1 (configuration not stated),inactive: 0.873%
2,CCCn1ccc2c(OCC(=O)NCc3ccccc3Cl)cccc2c1=O,inactive: -14.7%
3,O=C(CSc1nccn1Cc1ccccc1)NCc1ccccc1Cl,inactive: 17.8%
4,CCc1ccccc1NC(=O)NCc1ccc2c(c1)CCN2C(=O)c1ccccc1,inactive: -15.1%
5,O=C(Nc1ccccc1C(=O)OCc1cc(=O)n2c3c(sc2n1)CCCC3)c1cccc(Cl)c1,inactive: 15.7%
6,CC(C)Cn1cc(NC(=O)N2CCN(c3ccccc3F)CC2)c2ccccc2c1=O,inactive: 7.71%
7,Cc1cc(C)nc(NS(=O)(=O)c2ccc(NC(=O)COc3ccc(C(C)(C)C)cc3)cc2)n1,inactive: -1.5%
8,CCCn1c2ccccc2c2cnn(CC(=O)NCCc3ccccc3)c(=O)c21,inactive: -2.6%
9,COC(=O)c1ccc(Cn2c(=O)cc(C(F)(F)F)c3c(C)nn(C)c32)cc1,inactive: -0.217%
10,Cc1cccc(-c2nc(Cn3c(=O)cc(-c4ccccc4)c4c(C)nn(C)c43)c(C)o2)c1,inactive: -2.21%
11,Cc1ccccc1Cn1c(=O)n(CCc2ccccc2)c(=O)c2ccccc21,inactive: 27%
12,CCOc1ccc(S(=O)(=O)N(CC(=O)NCCSc2ccccc2)c2ccccc2)cc1,inactive: 12.2%
13,CCN(c1ccc(OC)cc1)S(=O)(=O)c1ccc2[nH]c(=O)ccc2c1,inactive: -3.95%
14,O=C(Cn1c2ncccc2c(=O)n1-c1ccccc1)Nc1ccc(F)c(F)c1,inactive: 2.83%
15,O=C(NCc1ccc(Cl)cc1)C1CCCN(c2nc3ccccc3n3cccc23)C1 (configuration not stated),inactive: -6%
16,Cc1ccc(C)c(N2CCN(Cc3csc(C)c3C)CC2)c1,inactive: 7.88%
17,COc1ccccc1-c1cc(C(=O)N2CCCCC2C)no1 (configuration not stated),inactive: -7.64%
18,CCCCC(=O)Nc1ccc2nc(SCC(=O)N3CCCC3)sc2c1,inactive: 28.4%
19,Nc1c(-c2nc(-c3cccs3)no2)nnn1-c1cccc(Cl)c1,inactive: 8.11%
20,COc1ccc(CNC(=O)c2nn(-c3ccccc3C)nc2CO)cc1,inactive: -7.32%
21,COc1ccc(OC)c(C(C)NC(=O)Cn2c(=O)cc(C)c3c(C)nn(-c4ccc(C)cc4)c32)c1 (configuration not stated),inactive: 9.92%
22,COc1cccc(CNC(=O)C(NS(=O)(=O)c2ccc3c(c2)CCN3C(C)=O)C(C)C)c1 (configuration not stated),inactive: 2.38%
23,CCc1ccc(Nc2ncnc3c2cnn3-c2cc(Cl)ccc2C)cc1,inactive: -26.3%
24,CCOC(=O)N1CCC(NC(=O)c2ccc3c(c2)N(Cc2ccc(F)cc2)C(=O)c2ccccc2S3(=O)=O)CC1,inactive: -13.9%
25,Cc1ccc(CNC(=O)c2ccc3c(O)c(S(=O)(=O)c4ccccc4)c(=O)[nH]c3c2)cc1,inactive: 3.98%

row,Compound,"activity change, negative = cytotoxicity"
1,CCOc1ccccc1NC(=O)c1nnn(CC(=O)Nc2ccc(OC)c(OC)c2)c1N,inactive: -5.51%
2,O=C(CSc1nc2ccccc2nc1Cc1ccc(Cl)cc1)NCCc1ccccc1,inactive: 7.71%
3,CCOc1ccc(NC(=O)C(NS(=O)(=O)c2ccc3c(c2)CCN3C(C)=O)C(C)C)cc1 (configuration not stated),inactive: -10.1%
4,Cc1ccc(N(Cc2cccs2)C(=O)c2ccc(Br)o2)cc1,inactive: -14.5%
5,Cc1cc(=O)n2nc(N3CCC(C(=O)Nc4ccc(C)c(Cl)c4)CC3)sc2n1,inactive: 5.8%
6,COc1ccc(CNC(=O)Cc2c(C)c3c(cc(C)c4c(C)c(C)oc43)oc2=O)cc1,inactive: 7.9%
7,CCSc1ncc(Cl)c(C(=O)Nc2nc3ccc(OC)cc3s2)n1,inactive: 0.411%
8,Cn1nc(C(=O)NCc2ccc(Cl)cc2)c2c1-c1ccccc1SC2,inactive: 13.3%
9,COc1ccc(CNC(=O)CCS(=O)(=O)c2ccc3c(c2)oc(=O)n3C)cc1,inactive: 3.84%
10,CCOc1cc(C2c3c(-c4ccc(Br)cc4)n[nH]c3C(=O)N2c2ccc(Cl)cc2)ccc1O (configuration not stated),inactive: -19.5%
11,CCc1nonc1NC(=O)c1oc2ccccc2c1C,inactive: -2.5%
12,O=C(CN1C(=O)COc2ccc(S(=O)(=O)N3CCOCC3)cc21)N1CCN(c2ccccc2)CC1,inactive: 11.3%
13,COCCCNC(=O)c1ccc2c(=O)n(Cc3ccc(OC)cc3)c(=O)[nH]c2c1,inactive: 0.957%
14,COc1ccc(CNC(=O)CN(c2cc(C)cc(C)c2)S(=O)(=O)c2c(C)[nH]c(=O)[nH]c2=O)cc1,inactive: 8.17%
15,O=C(COc1ccccc1)N(Cc1cccnc1)c1nc2ccc(F)cc2s1,inactive: -23.6%
16,CCOc1cc(-c2nc(-c3ccc(Br)cc3)no2)cc(OCC)c1OCC,inactive: -4.91%
17,COc1ccc(-c2cc(C(F)(F)F)n3nc(C(=O)NCC45CC6CC(CC(C6)C4)C5)cc3n2)cc1,inactive: 6.17%
18,Cc1cccc(CSc2nc3c(c(=O)[nH]2)C(c2cccc(O)c2)CC(=O)N3)c1 (configuration not stated),inactive: -15%
19,Cc1ccc(S(=O)(=O)C(CNC(=O)c2ccccc2F)c2cccs2)cc1 (configuration not stated),inactive: -1.89%
20,CCOC(=O)c1c(NC(=O)c2cc(C(C)C)on2)sc(C)c1C,inactive: 4.59%
21,COc1ccc(C2=C(C)C(=O)N(Cc3ccc(C(=O)NCc4ccc(C)cc4)cc3)S2(=O)=O)cc1,inactive: 0.794%
22,Cc1cccc(CN2CCN(CC(=O)NCc3ccc(Cl)cc3)C2=O)c1,inactive: -0.956%
